# Reference: the supplement of paper PMC3724861
# Some of the results follow.
# System: T1, Caupolican (Caup) homeodomain DNA-binding domain
# T1 sequence: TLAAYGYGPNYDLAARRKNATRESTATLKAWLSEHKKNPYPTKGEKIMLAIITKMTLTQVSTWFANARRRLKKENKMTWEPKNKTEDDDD
# Assay: PBM E-score (8-mer, recovered from the published 9-mer minima) (E-score (dimensionless, -0.5 to 0.5)); Drosophila protein; higher = stronger relative binding preference, active = 0.31 or more
# Method in brief: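 Caup's homeodomain DNA-binding domain (residues 214-303) was made by in vitro transcription and translation and applied at 100 nM to custom-designed protein binding microarrays. Each value is an enrichment score that gives relative binding preference for a short DNA word, with higher meaning stronger. The 8-mer values were recovered from published 9-mer scores, each of which was the minimum of its two constituent 8-mer scores. A cutoff of 0.31 marks candidate sites.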
row,Sequence,PBM E-score
1,GTTCCTCA,inactive: -0.0442
2,ACCGTGCG,inactive: -0.0463
3,CGGCTTAA,inactive: -0.111
4,AACATACA,active: 0.361
5,AGTTTCCA,inactive: 0.0163
6,ACGTCTTG,inactive: 0.0632
7,CTATGGAC,inactive: -0.0129
8,TATCCACA,inactive: 0.0611
9,ATTGCTGG,inactive: -0.0996
10,GTACCTAA,inactive: 0.123
11,AACTCTGG,inactive: -0.0524
12,ACCCGCCC,inactive: -0.179
13,AATAATCC,inactive: 0.169
14,CGTAGCTA,inactive: -0.0527
15,ACAATCCT,inactive: 0.0955
16,CACATATG,inactive: 0.15
17,ATGTGTCA,inactive: 0.297
18,AACCCTGC,inactive: -0.184
19,GATTTATA,inactive: 0.114
20,CGGGCTGC,inactive: -0.247
21,CTGGCTAC,inactive: -0.0495
22,AGTGGATA,inactive: 0.0671
23,TCCGATAA,inactive: 0.0136
24,ACTATTGA,inactive: 0.13
25,GAGTATGA,inactive: 0.0775

row,Sequence,PBM E-score
1,AGCACATC,inactive: 0.0585
2,AGATTCGG,inactive: -0.0104
3,TGCACTAA,inactive: 0.0967
4,CGGGGGAG,inactive: -0.333
5,ATCGCTTA,inactive: 0.0356
6,GACGGATA,inactive: -0.0023
7,AGCCCCTC,inactive: -0.283
8,CCCAAAAC,inactive: 0.0461
9,CACTAGTG,inactive: 0.0587
10,CATTATGA,inactive: 0.088
11,GTCGTTAA,inactive: 0.0842
12,CAAGGATA,inactive: 0.0429
13,ACCACTTG,inactive: 0.0923
14,CACGGTAG,inactive: -0.00333
15,CCCCTACG,inactive: -0.256
16,CGCACTAC,inactive: -0.021
17,CCAGCTTC,inactive: -0.128
18,GGCGAAGA,inactive: -0.162
19,CTGAATAA,inactive: 0.0803
20,TAATTATA,inactive: 0.234
21,AGACGGGG,inactive: -0.292
22,CCGTGTAC,active: 0.411
23,CAGTACTA,inactive: 0.183
24,ATAACCCC,inactive: -0.0574
25,ACTCTCCC,inactive: -0.139

row,Sequence,PBM E-score
1,AATAGACT,inactive: 0.0817
2,ATCGGGGC,inactive: -0.202
3,ACCAAGGA,inactive: 0.00106
4,AAGCGCGA,inactive: -0.033
5,GACATAGC,inactive: 0.254
6,ATCGCACG,inactive: -0.0229
7,TCGGCAAA,inactive: -0.0466
8,GAGCGATC,inactive: -0.0393
9,CTTCCATC,inactive: -0.159
10,ATCAGTTG,inactive: 0.218
11,CGACCAGA,inactive: 0.0428
12,GATCTTGC,inactive: -0.00744
13,CTAATAGA,inactive: 0.0917
14,GCCGCGAA,inactive: -0.267
15,ATATAGTA,inactive: 0.181
16,CATCCCCC,inactive: -0.251
17,CGTCCGAC,inactive: -0.0861
18,GGAACGAC,inactive: 0.0391
19,GACGAAGC,inactive: -0.0968
20,CTCATAAG,inactive: 0.0492
21,TCTGCGCA,≥ -0.0554
22,AGAGGTAC,inactive: 0.0429
23,CGAAATAG,inactive: -0.00544
24,CTCGAAGC,inactive: -0.192
25,ACAAGACC,inactive: 0.173

row,Sequence,PBM E-score
1,ACCAGGAG,inactive: -0.174
2,GTCGTGGA,inactive: -0.0165
3,CCTATATC,inactive: 0.0204
4,AATTCCTC,inactive: -0.0138
5,ACTTGAGC,inactive: -0.086
6,GATTTTAC,inactive: 0.156
7,ACATGAGT,inactive: 0.305
8,GAGAAAGA,inactive: -0.0597
9,TCTAGGAA,inactive: -0.0135
10,CGTTAACC,inactive: 0.0249
11,AATATTAT,inactive: 0.223
12,CGAAAACC,inactive: 0.00237
13,AGCCATCA,inactive: -0.00784
14,GACTGAAA,inactive: 0.00625
15,AGGCCCTA,inactive: -0.104
16,AGATACTA,inactive: 0.12
17,CAGGTAGG,inactive: -0.0492
18,CACTTGGA,inactive: 0.0572
19,AGAGTCAC,inactive: -0.0337
20,ACATTCGG,inactive: 0.173
21,GAACAGCC,inactive: -0.0666
22,CTCCCTCC,inactive: -0.268
23,CAACTGCG,inactive: -0.039
24,AACCATAC,inactive: 0.101
25,TGACTACA,inactive: 0.269

row,Sequence,PBM E-score
1,CACTACGC,inactive: -0.14
2,ATCCAGGA,≥ 0.0324
3,GAGCAAAA,inactive: -0.0468
4,AATCTTAG,inactive: -0.0734
5,AGTGTTAT,inactive: 0.206
6,ATTTGCGC,inactive: -0.0699
7,GATCCCAC,inactive: -0.0457
8,GTAGATGA,inactive: 0.0909
9,GGCGAAAC,inactive: -0.0989
10,TGGATCCA,inactive: -0.022
11,CTGCCATA,inactive: -0.0522
12,AGCGCTAC,inactive: -0.0476
13,AAAGAGGG,inactive: -0.126
14,TAACCATA,inactive: 0.0949
15,AATCTAAC,inactive: 0.103
16,AATATTGT,inactive: 0.264
17,GCGTTTGA,inactive: -0.0785
18,AGCATATC,inactive: 0.138
19,ATGATCCA,inactive: 0.00317
20,CCCATCTA,inactive: -0.0927
21,ACACCATA,inactive: 0.228
22,ACTACGTA,inactive: 0.0515
23,CCCAACTA,inactive: 0.0333
24,CCCGAGAG,inactive: -0.252
25,CTACGTGA,inactive: -0.0162

row,Sequence,PBM E-score
1,GCGGGCAA,inactive: -0.0686
2,ATAGCTGC,inactive: 0.0345
3,AATTCGCC,inactive: -0.0305
4,CATTCGTC,inactive: 0.0539
5,GGTTGGCA,inactive: -0.0694
6,CTAAGTCA,inactive: 0.00292
7,ACTTAGTA,inactive: 0.15
8,ACATCGGG,inactive: 0.00988
9,GAACCTAC,inactive: 0.0316
10,ACTTACAG,inactive: 0.187
11,CGCGGTCA,inactive: -0.176
12,GTACTAGA,inactive: 0.285
13,AAGCCTGA,inactive: -0.152
14,CTTGCAAC,inactive: 0.155
15,AAAATCCC,inactive: 0.00404
16,GCTGACAA,inactive: 0.217
17,ATCAACGC,inactive: 0.0719
18,GGTGCCCA,inactive: -0.169
19,AGTACGTG,inactive: 0.0988
20,ATACAGAG,inactive: 0.0668
21,GCCGCAAC,inactive: -0.0978
22,CCAGCTAG,inactive: 0.00105
23,CTCAGGCA,inactive: -0.141
24,AGAAGAAG,inactive: -0.132
25,CTGGTCCA,inactive: 0.0298

row,Sequence,PBM E-score
1,ATACCGCA,inactive: 0.0209
2,GATAGCGA,inactive: 0.0517
3,CCTGTGCC,inactive: -0.18
4,GTTGGCGA,inactive: -0.104
5,CCGGATCA,inactive: 0.0365
6,CCGATGCA,inactive: -0.0775
7,AATACGAT,inactive: 0.166
8,ATACGCGA,inactive: 0.107
9,CAGTCTCG,inactive: -0.121
10,ATACAGGG,inactive: 0.164
11,CTCTACTA,inactive: 0.0272
12,CTGACCCC,inactive: -0.261
13,ACCGTTGA,inactive: -0.00014
14,AATCCTCT,inactive: -0.0947
15,ACCGTACT,inactive: 0.0878
16,CACTTCAG,inactive: 0.0111
17,ACACTTAT,inactive: 0.182
18,CTCAACAC,inactive: 0.131
19,GGTTGGGA,inactive: -0.118
20,CATATCGA,inactive: 0.102
21,CAGGCGGC,inactive: -0.253
22,CCACTCCC,inactive: -0.203
23,ATCTATAC,≥ 0.178
24,CGGCTTGC,inactive: -0.117
25,AACACAGC,inactive: 0.231

row,Sequence,PBM E-score
1,AACACAAG,inactive: 0.228
2,TGAAAACA,inactive: 0.214
3,AGAAAGCA,inactive: 0.0369
4,ACCCACCC,≥ -0.059
5,GGTAGTAC,inactive: 0.167
6,CTCCCGCA,inactive: -0.192
7,GACATCAA,inactive: 0.296
8,ATTCGAGA,≥ 0.043
9,AAGGTATG,inactive: 0.103
10,ACTTGTGA,≥ 0.205
11,AGTCCCTC,inactive: -0.146
12,GGAAGGAA,inactive: -0.112
13,CTCTCGGC,inactive: -0.224
14,AAGTGGGA,≥ 0.0343
15,CCTCAACC,inactive: -0.119
16,AGCTAGCC,inactive: -0.14
17,ACTCCGTC,inactive: -0.144
18,GCCCGAAC,inactive: -0.114
19,ATGCCAGC,inactive: -0.0947
20,CAGTCTCA,inactive: -0.042
21,GGGATCCC,inactive: -0.186
22,AGCATGAT,inactive: 0.197
23,AGGGCACA,inactive: 0.0145
24,AGACGTAG,inactive: -0.00632
25,ATGGACGC,inactive: -0.044

row,Sequence,PBM E-score
1,AGTAACAT,active: 0.316
2,ACCTACGC,inactive: -0.0531
3,AAGGCCGA,inactive: -0.0928
4,AAACGATC,inactive: 0.0157
5,GAATAGGC,inactive: -0.113
6,CGGCCTCC,inactive: -0.267
7,AGCTGACC,inactive: -0.0968
8,CGCGAACG,inactive: -0.0783
9,CATTTCAA,inactive: 0.154
10,GAGGCATA,inactive: -0.0213
11,GCTGGAAA,inactive: 0.0667
12,CTCGGCCC,inactive: -0.266
13,CTCCGATC,inactive: -0.156
14,ACTCACAG,inactive: -0.0137
15,AGGAATAG,≥ 0.104
16,AATCTCCG,inactive: -0.0947
17,TGCCTGAA,inactive: -0.0479
18,ACTGCCGG,inactive: -0.163
19,AAAGTATC,inactive: 0.0669
20,ATAAACCA,inactive: 0.0793
21,ATCGCCTC,inactive: -0.0677
22,AGCATTAC,inactive: 0.0828
23,ACTACTGA,inactive: 0.0932
